# Measurements reported in the supplement of paper PMC8728848.
# Some of the results follow.
# How the values were obtained:
# Assay in all cases: glycan array binding signal (z-score within array); higher = stronger binding
# Details in all cases: glycan notation: IUPAC condensed, linker removed
# [1] = target: Gal(b1-4)Glc
# Procedure, shortened: (§1)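 Columns mapping to the same glycan were averaged after glycan names were converted to IUPAC-condensed notation. The data come from 3228 arrays in the Consortium for Functional Glycomics database, limited to those with an available protein sequence. Binding is reported as a within-array Z-score averaged across arrays of one protein sequence and across linkers.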
# [2] = target: Gal(b1-4)Glc6S
# Procedure, shortened: as §1
# [3] = target: Gal(b1-4)GlcNAc
# Procedure, shortened: as §1
# [4] = target: Gal(b1-4)GlcNAc(a1-6)Gal(b1-4)GlcNAc
# Procedure, shortened: as §1
# [5] = target: Gal(b1-4)GlcNAc(b1-2)Man
# Procedure, shortened: as §1
# [6] = target: Gal(b1-4)GlcNAc(b1-2)Man(a1-3)Man(b1-4)GlcNAc(b1-4)GlcNAc
# Procedure, shortened: as §1
# [7] = target: Gal(b1-4)GlcNAc(b1-2)Man(a1-3)[Gal(b1-4)GlcNAc(b1-2)Man(a1-6)]Man(b1-4)GlcNAc(b1-4)GlcNAc
# Procedure, shortened: as §1
# [8] = target: Gal(b1-4)GlcNAc(b1-2)Man(a1-3)[Gal(b1-4)GlcNAc(b1-2)Man(a1-6)]Man(b1-4)GlcNAc(b1-4)[Fuc(a1-6)]GlcNAc
# Procedure, shortened: as §1
# [9] = target: Gal(b1-4)GlcNAc(b1-2)Man(a1-3)[Gal(b1-4)GlcNAc(b1-2)Man(a1-6)][Gal(b1-4)GlcNAc(b1-4)]Man(b1-4)GlcNAc(b1-4)[Fuc(a1-6)]GlcNAc
# Procedure, shortened: as §1
# [10] = target: Gal(b1-4)GlcNAc(b1-2)Man(a1-3)[Gal(b1-4)GlcNAc(b1-2)Man(a1-6)][GlcNAc(b1-4)]Man(b1-4)GlcNAc(b1-4)[Fuc(a1-6)]GlcNAc
# Procedure, shortened: as §1
# [11] = target: Gal(b1-4)GlcNAc(b1-2)Man(a1-3)[GlcNAc(b1-2)Man(a1-6)]Man(b1-4)GlcNAc(b1-4)GlcNAc
# Procedure, shortened: as §1
# [12] = target: Gal(b1-4)GlcNAc(b1-2)Man(a1-3)[GlcNAc(b1-4)][Gal(b1-4)GlcNAc(b1-2)Man(a1-6)]Man(b1-4)GlcNAc(b1-4)GlcNAc
# Procedure, shortened: as §1
# [13] = target: Gal(b1-4)GlcNAc(b1-2)Man(a1-3)[Man(a1-6)]Man(b1-4)GlcNAc(b1-4)GlcNAc
# Procedure, shortened: as §1
# [14] = target: Gal(b1-4)GlcNAc(b1-2)Man(a1-6)Man(b1-4)GlcNAc(b1-4)GlcNAc
# Procedure, shortened: as §1
# [15] = target: Gal(b1-4)GlcNAc(b1-2)Man(a1-6)[GlcNAc(b1-2)Man(a1-3)]Man(b1-4)GlcNAc(b1-4)GlcNAc
# Procedure, shortened: as §1
# [16] = target: Gal(b1-4)GlcNAc(b1-2)Man(a1-6)[Man(a1-3)]Man(b1-4)GlcNAc(b1-4)GlcNAc
# Procedure, shortened: as §1
# [17] = target: Gal(b1-4)GlcNAc(b1-2)[Gal(b1-4)GlcNAc(b1-4)]Man(a1-3)[Gal(b1-4)GlcNAc(b1-2)Man(a1-6)]Man(b1-4)GlcNAc(b1-4)GlcNAc
# Procedure, shortened: as §1
# [18] = target: Gal(b1-4)GlcNAc(b1-2)[Gal(b1-4)GlcNAc(b1-4)]Man(a1-3)[Gal(b1-4)GlcNAc(b1-2)[Gal(b1-4)GlcNAc(b1-6)]Man(a1-6)]Man(b1-4)GlcNAc(b1-4)GlcNAc
# Procedure, shortened: as §1
# [19] = target: Gal(b1-4)GlcNAc(b1-2)[Gal(b1-4)GlcNAc(b1-4)]Man(a1-3)[GlcNAc(b1-4)][Gal(b1-4)GlcNAc(b1-2)Man(a1-6)]Man(b1-4)GlcNAc(b1-4)GlcNAc
# Procedure, shortened: as §1
# [20] = target: Gal(b1-4)GlcNAc(b1-2)[Gal(b1-4)GlcNAc(b1-4)]Man(a1-3)[GlcNAc(b1-4)][Gal(b1-4)GlcNAc(b1-2)[Gal(b1-4)GlcNAc(b1-6)]Man(a1-6)]Man(b1-4)GlcNAc(b1-4)GlcNAc
# Procedure, shortened: as §1
# [21] = target: Gal(b1-4)GlcNAc(b1-2)[Gal(b1-4)GlcNAc(b1-6)]Man(a1-6)[Gal(b1-4)GlcNAc(b1-2)Man(a1-3)]Man(b1-4)GlcNAc(b1-4)GlcNAc
# Procedure, shortened: as §1
# [22] = target: Gal(b1-4)GlcNAc(b1-2)[Gal(b1-4)GlcNAc(b1-6)]Man(a1-6)[Gal(b1-4)GlcNAc(b1-2)Man(a1-3)]Man(b1-4)GlcNAc(b1-4)[Fuc(a1-6)]GlcNAc
# Procedure, shortened: as §1
# [23] = target: Gal(b1-4)GlcNAc(b1-2)[Gal(b1-4)GlcNAc(b1-6)]Man(a1-6)[GlcNAc(b1-4)][Gal(b1-4)GlcNAc(b1-2)Man(a1-3)]Man(b1-4)GlcNAc(b1-4)GlcNAc
# Procedure, shortened: as §1
# [24] = target: Gal(b1-4)GlcNAc(b1-2)[Gal(b1-4)GlcNAc(b1-6)]Man(a1-6)[GlcNAc(b1-4)][Gal(b1-4)GlcNAc(b1-2)[Gal(b1-4)GlcNAc(b1-4)]Man(a1-3)]Man(b1-4)GlcNAc(b1-4)[Fuc(a1-6)]GlcNAc
# Procedure, shortened: as §1
# [25] = target: Gal(b1-4)GlcNAc(b1-3)Gal(b1-3)GalNAc
# Procedure, shortened: as §1
# [26] = target: Gal(b1-4)GlcNAc(b1-3)Gal(b1-3)GlcNAc
# Procedure, shortened: as §1
# [27] = target: Gal(b1-4)GlcNAc(b1-3)Gal(b1-4)Glc
# Procedure, shortened: as §1
# [28] = target: Gal(b1-4)GlcNAc(b1-3)Gal(b1-4)GlcNAc
# Procedure, shortened: as §1
# [29] = target: Gal(b1-4)GlcNAc(b1-3)Gal(b1-4)GlcNAc(b1-2)Man(a1-3)[Gal(b1-4)GlcNAc(b1-3)Gal(b1-4)GlcNAc(b1-2)Man(a1-6)]Man(b1-4)GlcNAc(b1-4)GlcNAc
# Procedure, shortened: as §1
# [30] = target: Gal(b1-4)GlcNAc(b1-3)Gal(b1-4)GlcNAc(b1-2)Man(a1-3)[Gal(b1-4)GlcNAc(b1-3)Gal(b1-4)GlcNAc(b1-2)Man(a1-6)]Man(b1-4)GlcNAc(b1-4)[Fuc(a1-6)]GlcNAc
# Procedure, shortened: as §1
# [31] = target: Gal(b1-4)GlcNAc(b1-3)Gal(b1-4)GlcNAc(b1-2)[Gal(b1-4)GlcNAc(b1-3)Gal(b1-4)GlcNAc(b1-6)]Man(a1-6)[Gal(b1-4)GlcNAc(b1-3)Gal(b1-4)GlcNAc(b1-2)Man(a1-3)]Man(b1-4)GlcNAc(b1-4)GlcNAc
# Procedure, shortened: as §1
# [32] = target: Gal(b1-4)GlcNAc(b1-3)Gal(b1-4)GlcNAc(b1-2)[Gal(b1-4)GlcNAc(b1-3)Gal(b1-4)GlcNAc(b1-6)]Man(a1-6)[Gal(b1-4)GlcNAc(b1-3)Gal(b1-4)GlcNAc(b1-2)Man(a1-3)]Man(b1-4)GlcNAc(b1-4)[Fuc(a1-6)]GlcNAc
# Procedure, shortened: as §1
# [33] = target: Gal(b1-4)GlcNAc(b1-3)Gal(b1-4)GlcNAc(b1-3)Gal(b1-4)GlcNAc
# Procedure, shortened: as §1
# [34] = target: Gal(b1-4)GlcNAc(b1-3)Gal(b1-4)GlcNAc(b1-3)Gal(b1-4)GlcNAc(b1-2)Man(a1-3)[Gal(b1-4)GlcNAc(b1-3)Gal(b1-4)GlcNAc(b1-3)Gal(b1-4)GlcNAc(b1-2)Man(a1-6)]Man(b1-4)GlcNAc(b1-4)GlcNAc
# Procedure, shortened: as §1
# [35] = target: Gal(b1-4)GlcNAc(b1-3)Gal(b1-4)GlcNAc(b1-3)Gal(b1-4)GlcNAc(b1-2)Man(a1-3)[Gal(b1-4)GlcNAc(b1-3)Gal(b1-4)GlcNAc(b1-3)Gal(b1-4)GlcNAc(b1-2)Man(a1-6)]Man(b1-4)GlcNAc(b1-4)[Fuc(a1-6)]GlcNAc
# Procedure, shortened: as §1
# [36] = target: Gal(b1-4)GlcNAc(b1-3)Gal(b1-4)GlcNAc(b1-3)Gal(b1-4)GlcNAc(b1-2)[Gal(b1-4)GlcNAc(b1-3)Gal(b1-4)GlcNAc(b1-3)Gal(b1-4)GlcNAc(b1-6)]Man(a1-6)[Gal(b1-4)GlcNAc(b1-3)Gal(b1-4)GlcNAc(b1-3)Gal(b1-4)GlcNAc(b1-2)Man(a1-3)]Man(b1-4)GlcNAc(b1-4)[Fuc(a1-6)]GlcNAc
# Procedure, shortened: as §1
# [37] = target: Gal(b1-4)GlcNAc(b1-3)Gal(b1-4)GlcNAc(b1-3)Gal(b1-4)GlcNAc(b1-3)Gal(b1-4)GlcNAc(b1-2)Man(a1-3)[Gal(b1-4)GlcNAc(b1-3)Gal(b1-4)GlcNAc(b1-3)Gal(b1-4)GlcNAc(b1-3)Gal(b1-4)GlcNAc(b1-2)Man(a1-6)]Man(b1-4)GlcNAc(b1-4)GlcNAc
# Procedure, shortened: as §1
binder,measurement,setting,value
PX9937B-bvu-524-33-524 (Bacteroides vulgatus) (protein) GTAYWKNPDQFTAFNTGLHALLREKSYNFFLLGEPRADIYGDNPIGGEASQGMERLPFNTINKENVGISNYGDMYKIINQINQMIAKTTETTILTEATQNYYLGEAYGMRAYLYFHLLRSWGDVVLYLDYTEGQNLDLSNITKGVSPATEVMEQIKKDIQASENAFGSDYSFKLGRHFWSAAATQMLKGEAYLWSGRQMNGGNSDYTIAKNAFENVKKADVGLVTSSFKDIFSFENKKNKEMIFTIHNGKDEYEMWGGYYRMRLIPAQDKMVKIYCDENGNSFVGTPDAQLNGLTQLQVRREFYFKGFRNNDTRWTTSLKAVYKKDAQGVVSYFGPITYKFQGTMLEGGSTRSFLDDFPIYRYADCLLQLAMAKVLLGEDPTEEINAVRERAYGSKYFNEHKAEIAYPNDNDPEFYTDNKWMKPDNAGALEAILKERLREFMFEGKRWYDIRLLGWDYVHQYSSAEQSRLLWPIDAGTLTNNSALKQTPGYE,glycan array binding signal (z-score),[1],-0.336
same,glycan array binding signal (z-score),[2],-0.368
same,glycan array binding signal (z-score),[3],-0.306
same,glycan array binding signal (z-score),[4],-0.482
same,glycan array binding signal (z-score),[5],-0.274
same,glycan array binding signal (z-score),[6],-0.338
same,glycan array binding signal (z-score),[7],0.187
same,glycan array binding signal (z-score),[8],0.493
same,glycan array binding signal (z-score),[9],-0.02
same,glycan array binding signal (z-score),[10],-0.553
same,glycan array binding signal (z-score),[11],0.006
same,glycan array binding signal (z-score),[12],-0.463
same,glycan array binding signal (z-score),[13],0.053
same,glycan array binding signal (z-score),[14],-0.347
same,glycan array binding signal (z-score),[15],-0.149
same,glycan array binding signal (z-score),[16],0.429
same,glycan array binding signal (z-score),[17],-0.111
same,glycan array binding signal (z-score),[18],-0.25
same,glycan array binding signal (z-score),[19],-0.238
same,glycan array binding signal (z-score),[20],-0.39
same,glycan array binding signal (z-score),[21],0.111
same,glycan array binding signal (z-score),[22],-0.295
same,glycan array binding signal (z-score),[23],-0.405
same,glycan array binding signal (z-score),[24],0.073
same,glycan array binding signal (z-score),[25],-0.08
same,glycan array binding signal (z-score),[26],-0.318
same,glycan array binding signal (z-score),[27],-0.24
same,glycan array binding signal (z-score),[28],-0.12
same,glycan array binding signal (z-score),[29],2.05
same,glycan array binding signal (z-score),[30],1.48
same,glycan array binding signal (z-score),[31],1.45
same,glycan array binding signal (z-score),[32],0.249
same,glycan array binding signal (z-score),[33],-0.248
same,glycan array binding signal (z-score),[34],1.42
same,glycan array binding signal (z-score),[35],2.54
same,glycan array binding signal (z-score),[36],-0.069
same,glycan array binding signal (z-score),[37],1.49
